Experimental data from the supplement of paper PMC3724861.
Some of the results follow.

The sequences below were run on T1, Caupolican (Caup) homeodomain DNA-binding domain (assay: PBM E-score (8-mer, recovered from the published 9-mer minima) (E-score (dimensionless, -0.5 to 0.5)); Drosophila protein; higher = stronger relative binding preference, active = 0.31 or more).
T1 sequence: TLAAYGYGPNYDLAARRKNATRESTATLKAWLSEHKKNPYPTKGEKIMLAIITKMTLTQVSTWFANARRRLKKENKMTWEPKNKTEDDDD
Procedure: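 Protein binding microarray (PBM): in vitro transcribed/translated Caupolican (Caup) homeodomain DNA-binding domain (residues 214-303) applied at 100 nM to a universal 8-mer PBM array (Agilent AMADID 015681). The 8-mer enrichment score (E-score, range -0.5 to 0.5) was computed, and each 9-mer score is the minimum E-score of its two constituent 8-mers. The E-score is the same for a 9-mer and its reverse complement; 0.31 is the stated binding threshold.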

| Sequence | PBM E-score |
| --- | --- |
| AGCCGCGA | inactive: -0.218 |
| ATACGAGG | inactive: 0.00478 |
| CAGACTCA | inactive: 0.0303 |
| GTACACCA | inactive: 0.238 |
| ACTCGCCG | inactive: -0.0788 |
| CATCCCGC | inactive: -0.146 |
| GACCCGCC | inactive: -0.165 |
| ACAACGGA | inactive: 0.16 |
| ATCACATG | inactive: 0.286 |
| GCCAATAC | inactive: 0.047 |
| ATAAGTGA | inactive: 0.0155 |
| AATCAGGA | inactive: 0.0539 |
| AGCGTAGA | inactive: -0.0756 |
| AGCTGCCC | inactive: -0.142 |
| ATTCATTG | inactive: 0.102 |
| GCTTGCGA | inactive: -0.0639 |
| ACCACGAC | inactive: 0.0487 |
| AGATGGCT | inactive: -0.0854 |
| AAGCTCAC | inactive: -0.119 |
| CCCCTCGG | inactive: -0.234 |
| CTACATAG | inactive: 0.215 |
| CTGATCCC | inactive: -0.0849 |
| AGTATCAG | inactive: 0.0752 |
| ATGGCAAG | inactive: -0.0682 |

| Sequence | PBM E-score |
| --- | --- |
| CTCGAGGA | inactive: -0.0712 |
| ACGGGACC | inactive: -0.15 |
| ACATGGTG | active: 0.366 |
| AAGAGCAT | inactive: 0.107 |
| TAACGGAA | inactive: 0.0231 |
| ACCCGGGT | inactive: -0.178 |
| CACTTGGG | inactive: -0.105 |
| AGCGCTTC | inactive: -0.0427 |
| CCCGAACG | inactive: -0.0905 |
| CAAAATGG | inactive: 0.0491 |
| CTAAAAGC | inactive: -0.197 |
| TGCCACAA | inactive: 0.0197 |
| CAACATTC | inactive: 0.0579 |
| CGTTACGC | inactive: -0.0326 |
| CCCCCTTC | inactive: -0.389 |
| ATTCCGCA | inactive: -0.0995 |
| CTTTGAGA | inactive: -0.0322 |
| AACCCATG | inactive: 0.0859 |
| AAATGTTC | inactive: 0.247 |
| CATGTTTA | active: 0.399 |
| ACCATAAT | inactive: 0.119 |
| CATTCACA | inactive: 0.129 |
| ACTTGCTC | inactive: 0.106 |
| CTCTTCTC | inactive: -0.179 |

| Sequence | PBM E-score |
| --- | --- |
| CCCAGGCG | inactive: -0.286 |
| ATCTACTG | inactive: 0.119 |
| GCACGTTA | inactive: -0.0122 |
| ACCGACGT | ≥ -0.0125 |
| GTCAGTTA | inactive: 0.142 |
| GTAATAAA | inactive: 0.168 |
| ACACCATC | inactive: 0.189 |
| AGCACAAT | inactive: 0.106 |
| CCGGCAAA | inactive: -0.0453 |
| ACCTGTTC | inactive: 0.199 |
| AAAGACAA | inactive: 0.259 |
| AACGGTTC | inactive: -0.111 |
| CACAGTGA | inactive: 0.0675 |
| CATGTGGG | inactive: 0.0391 |
| AGAGACTA | inactive: 0.00357 |
| CACAGCTC | inactive: -0.0354 |
| ACCTAGTG | inactive: 0.0321 |
| CAACTTCC | inactive: -0.0271 |
| AAATTCTG | inactive: 0.0565 |
| AAGATTGG | inactive: 0.0988 |
| GGCACGAC | inactive: -0.0298 |
| CCGATCCC | inactive: -0.184 |
| CACAGATC | inactive: 0.019 |
| AATGGGTC | inactive: -0.129 |

| Sequence | PBM E-score |
| --- | --- |
| CGTCGTAA | inactive: 0.133 |
| TCAGGGAA | inactive: -0.0973 |
| TCTTGCCA | inactive: 0.00741 |
| AAATGCAG | inactive: 0.0211 |
| GCGCCATA | inactive: -0.109 |
| AGTTTGCA | inactive: 0.0319 |
| CCCCATAA | inactive: -0.104 |
| CCTATTAG | inactive: 0.072 |
| CCATATGC | inactive: 0.0246 |
| AGGGATTC | inactive: -0.0888 |
| CAGCATCG | inactive: -0.0915 |
| CGCTGGCA | inactive: -0.112 |
| GTTTCCGA | inactive: 0.031 |
| CCACTATA | inactive: 0.0838 |
| CCCATTCG | inactive: -0.136 |
| GCCGGAGC | inactive: -0.274 |
| GCAGGACC | inactive: -0.165 |
| AAGCCCTG | inactive: -0.079 |
| AATTTTGC | inactive: 0.0823 |
| AATATGCG | inactive: 0.0313 |
| GAAATGAC | inactive: 0.123 |
| AGAATGCC | inactive: -0.0772 |
| GATTTGTA | inactive: 0.255 |
| GTTGTTGA | active: 0.321 |

| Sequence | PBM E-score |
| --- | --- |
| CGCTTTAG | inactive: -0.103 |
| AGTGAACA | inactive: 0.284 |
| TGGTCGAA | inactive: -0.024 |
| TAGAAATA | inactive: 0.1 |
| AGTTAGCC | inactive: -0.147 |
| CAAACCCG | inactive: -0.118 |
| GATCTATA | inactive: 0.119 |
| ACCTGTCC | inactive: 0.0919 |
| CTGGCCAC | inactive: -0.142 |
| ATGTAAGG | inactive: 0.303 |
| GACTAATA | inactive: 0.175 |
| CGCTTCTC | inactive: -0.18 |
| CCAGAGCC | inactive: -0.187 |
| CAGCGTCG | inactive: -0.141 |
| ACGGCCGA | inactive: -0.108 |
| GGAACTGA | inactive: -0.043 |
| ACGGATAG | inactive: -0.0384 |
| AACCCTCG | inactive: -0.0473 |
| CCTCGCAA | inactive: -0.094 |
| ACATCTAA | inactive: 0.238 |
| GCGCGCCA | inactive: -0.156 |
| AGGGGCGA | inactive: -0.186 |
| TTATTCAA | inactive: 0.163 |
| GTGGTTTA | inactive: 0.0307 |

| Sequence | PBM E-score |
| --- | --- |
| CAGAGCGA | inactive: -0.0616 |
| AGCAGTAA | inactive: 0.0927 |
| GCATACGC | inactive: -0.0725 |
| AGGGTCCA | inactive: -0.233 |
| AGTCAAAT | inactive: 0.0885 |
| ATGATAGG | inactive: -0.0525 |
| ACTCTTGC | inactive: 0.0129 |
| AGAGTAGG | inactive: 0.00327 |
| ATACCCGA | inactive: 0.00121 |
| GGGGAACA | inactive: 0.0776 |
| CGCTTCAC | inactive: -0.212 |
| CTCCCGCC | inactive: -0.217 |
| ACGTTCTC | inactive: 0.0157 |
| AGCAGAGG | inactive: -0.177 |
| ATCTGAGG | inactive: -0.017 |
| CGACCCAA | inactive: -0.0571 |
| GAATTGTC | inactive: 0.0615 |
| ATGCTATC | inactive: -0.012 |
| CTAAGTGA | inactive: 0.0437 |
| CAGTTACG | inactive: -0.0164 |
| TCCAGAAA | inactive: 0.0344 |
